Measured values as given in PubChem BioAssay AID1745853 (National Center for Advancing Translational Sciences (NCATS), 2022).
The list shows a part of the results. The main result of the screen is listed elsewhere. These columns were measured beside it and carry no call.

Columns and labels:
Assay in all cases: Primary Screen for Target Class Profiling of Small Molecule Inhibitors of Methyltransferases
[1] = molecular target: Glycine N-methyltransferase (Homo sapiens) (UniProt Q14749); conditions: purified enzyme, MTase-Glo SAH luminescence; measured here: GNMT inhibition; at 40 µM; stronger effect = lower value
Summary of the method: (§1)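 Each enzyme was assayed with SAM and its substrate. SAH formation detected by MTase-Glo luminescence; single-point 40 uM screen[…].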

[2] = molecular target: Guanidinoacetate N-methyltransferase (Homo sapiens) (UniProt Q14353); conditions: purified enzyme, MTase-Glo SAH luminescence; measured here: GAMT inhibition; at 40 µM; stronger effect = lower value
Summary of the method: as §1

[3] = molecular target: Histamine N-methyltransferase (Homo sapiens) (UniProt P50135); conditions: purified enzyme, MTase-Glo SAH luminescence; measured here: HNMT inhibition; at 40 µM; stronger effect = lower value
Summary of the method: as §1

[4] = molecular target: Nicotinamide N-methyltransferase (Homo sapiens) (UniProt P40261); conditions: purified enzyme, MTase-Glo SAH luminescence; measured here: NNMT inhibition; at 40 µM; stronger effect = lower value
Summary of the method: as §1

[5] = molecular target: Phenylethanolamine N-methyltransferase (Homo sapiens) (UniProt P11086); conditions: purified enzyme, MTase-Glo SAH luminescence; measured here: PNMT inhibition; at 40 µM; stronger effect = lower value
Summary of the method: as §1
On the % scale 0 is the no-effect control and ±100 the full control effect.

Row | Compound | activity change, negative = inhibition [1] | activity change, negative = inhibition [2] | activity change, negative = inhibition [3] | activity change, negative = inhibition [4] | activity change, negative = inhibition [5]
1 | CCCCC1C(=O)N(C)CCN1c1nc2c(s1)c(C)nn2C (stereo not given) | -9.45% | -9.71% | -7.28% | -17.9% | -8.87%
2 | C=C(C(=O)OC[C@H]1O[C@@H](OC(=O)/C=C/c2ccccc2)[C@H](O)[C@@H](O)[C@@H]1O)C(O)CO (stereo not given in full) | -4.36% | -5.71% | 8.72% | -17.5% | -12.2%
3 | CCNc1ncnc2sc3c(c12)CCN(Cc1ccco1)C3 | -24.5% | -7.92% | -12.2% | -36.2% | -14.4%
4 | CC(C)NC(=O)c1ccc2c(=O)n(Cc3ccccc3)c3nn(CC(=O)NC4CCCC4)c(=O)n3c2c1 | -5.27% | -2.23% | -2.2% | -5.43% | -3.6%
5 | O=C(c1cnn2cccnc12)N(Cc1ccncc1)Cc1cccc(OCCc2ccc(F)cc2)c1 | -8.64% | -7.58% | -5.29% | -12.4% | -2.55%
6 | COc1ccc(CCN2C(=O)c3ccccc3CC2(C)C(=O)NC2CCCCC2)cc1OC (stereo not given) | -2.56% | 1.28% | 10.3% | 4.78% | 2.25%
7 | COc1ccc(CCN2C(=O)c3cc4oc(C)cc4n3CC2(C)C(=O)NC2CCCCC2)cc1OC (stereo not given) | -2.27% | 0.809% | 0.599% | -64.3% | -2.69%
8 | COCCNC(=O)[C@@H]1CCC[C@@H](NC(=O)c2c(-c3ccccc3)noc2C)CN(C)C(=O)C1 | -1.59% | -0.876% | -0.695% | -5.78% | -1.12%
9 | Cc1ccc(NC(=O)N2CCC(c3noc(COCC4CC4)n3)CC2)cc1F | -5.55% | -6.7% | -1.72% | -4.68% | 1.44%
10 | COc1cc(CCc2cc(NC(=O)c3ccc(N4CC(C)NC(C)C4)cc3)n[nH]2)cc(OC)c1 (stereo not given) | -4.56% |  | -18.8% |  | 
11 | Cn1nc(N2CCC(NS(=O)(=O)c3ccc4c(c3)CCC4)CC2)ccc1=O | -3.06% | -4.07% | -2.46% | -14.1% | -26.2%
12 | CCOc1nc2cccc(C(=O)O)c2n1Cc1ccc(-c2ccccc2-c2nn[nH]n2)cc1 | -5.25% | -1.84% | 6.62% | -16.3% | -3.82%
13 | O=C([C@@H]1C[C@H](Oc2cccnc2)CN1C(=O)c1cc2ccccc2[nH]1)N1CCCC1 | -1.06% | 6.09% | 1.84% | 0.02% | 7.13%
14 | CCn1c(CO)nnc1C1CC(NC(=O)c2oc3cc(OC)ccc3c2C)C1 (stereo not given) | -10.3% | -8.47% | -4.12% | -17.8% | -14.7%
15 | CCCn1c(=O)c2ccc(C(=O)NC3CCCC3)cc2n2c(=O)n(CC(N)=O)nc12 | -2.5% | 0% | 3.25% | 0.073% | 2.35%
16 | CCCCN1CCCC[C@H]1C(=O)Nc1c(C)cccc1C | -0.817% | 2.48% | 7.76% | -11.5% | 4.22%
17 | COC(=O)c1cccc2c1NC(c1ccc(Br)cc1)C1CC=CC21 (stereo not given) | -12.3% | 4.01% | -10.9% | -12.8% | -9.66%
18 | CC(C)OCCCn1c(=O)c2ccccc2n2c(CCC(=O)NC3CCCCC3)nnc12 | -5.93% | 4.45% | 4.08% | 4.29% | 1.17%
19 | COc1cccc(CC(=O)N2CCCCCCN(C)C(=O)[C@H]3CCC[C@H]32)c1 | -2.24% | -3.67% | -1.22% | -9.7% | 8.13%
20 | COc1cccc(CNC(=O)Cn2ccc3cc(S(=O)(=O)N4CCCCC4)ccc32)c1OC | 1.5% | -0.66% | -4.27% | -8.8% | -4.19%

Row | Compound | activity change, negative = inhibition [1] | activity change, negative = inhibition [2] | activity change, negative = inhibition [3] | activity change, negative = inhibition [4] | activity change, negative = inhibition [5]
21 | O=C(CCc1nnc2n(Cc3ccc(Cl)cc3)c(=O)c3ccccc3n12)NCc1ccccc1 | -7.71% | 3.65% | 3.29% | 1.14% | -2.41%
22 | CCCc1cc2c(N3CCN(C4=NCC(C)(C)S4)CC3)ncnc2s1 | -1.83% | 11% | -33.6% | -88.6% | -1.77%
23 | C[C@@H]1CC[C@@]2(OC1)O[C@H]1C[C@H]3[C@@H]4CC=C5C[C@@H](O)CC[C@]5(C)[C@H]4CC[C@]3(C)[C@H]1[C@@H]2C | 0.822% | -7.78% | 3.82% | -14.4% | -0.787%
24 | Cc1cccc(-c2cccc(CN3CCC(N[S+](=O)([O-])c4c(C)noc4C)CC3)c2)c1 | -1.04% | -0.787% | -0.006% | -3.47% | 0.88%
25 | CC(C)CCNC(=O)C1(C)Cn2c(cc3ccccc32)C(=O)N1c1cccc(Cl)c1 (stereo not given) | -3.99% | 4.74% | 0.306% | -6.09% | -4.24%
26 | COC(=O)/C=C/C=C/C(=O)OC1C=C2COC(=O)C2(O)C2(C)CCCC(C)(C)C12 (stereo not given) | -3.71% | -1.84% | 6.32% | -16.8% | -6.17%
27 | CNCc1ccc(C)c(NC(=O)c2ccc(Nc3nc(-c4ccccc4)c4ccccc4n3)cc2)c1 | -17.4% | -17.4% | -21.6% | -48.6% | -18.2%
28 | CCc1ccc(S(=O)(=O)c2nnn3c2nc(NCCNC(C)=O)c2cc(Cl)ccc23)cc1 | -15.9% | 2.85% | 0.683% | -12.6% | -1.75%
29 | COC(=O)C1=COC(O[C@@H]2O[C@H](CO)[C@@H](O)[C@H](O)[C@H]2O)[C@H]2[C@@H]1[C@H](OC(=O)CCc1ccc(O)cc1)C[C@]2(C)O (stereo not given in full) | 6.48% | 2.11% | 10.1% | -7.26% | 0.718%
30 | CCC1(CO)CCCN(CCCOc2ccc(C(N)=O)cc2)C1 (stereo not given) | -4.49% | -8.76% | -24.9% | -15.2% | -9.68%
31 | COC(=O)CC(NC(=O)Nc1cccn2nc(C)nc12)c1ccccc1 (stereo not given) | -7.84% | 0.493% | 1.54% | -9.36% | -4.31%
32 | CCc1cc2c(cc3n2CC(C)(C(=O)NC2CCCCC2)N(Cc2ccco2)C3=O)s1 (stereo not given) | -18.5% | 4.91% | -5.62% | -10.9% | -7.87%
33 | Cc1ccc(CNC(=O)Cn2c(=O)oc3cc(S(=O)(=O)N4CCCCC4C)ccc32)cc1 (stereo not given) | 15% | 0% | 6.91% | -3.54% | 1.33%
34 | COc1ccc(S(=O)(=O)N2CCCC(CN3CCC(C)CC3)CC2)cc1 (stereo not given) | 3.05% | 2.08% | -0.756% | 2.22% | 6.57%
35 | C=CCn1c(=O)c2ccc(C(=O)NC(C)C)cc2n2c(=O)n(CC(=O)Nc3ccccc3F)nc12 | 2.91% | 3.41% | 3.56% | -5.78% | 0.026%
36 | COc1cc([C@H]2OC[C@@H]3[C@@H](c4ccc(O[C@@H]5O[C@H](CO)[C@@H](O)[C@H](O)[C@H]5O)c(OC)c4)OC[C@]23O)ccc1O | 4.75% | 4.53% | 10.6% | -5.42% | 7.6%
37 | CCCn1c(=O)c2ccc(C(=O)NC(C)C)cc2n2c(SCc3ccccc3F)nnc12 | -2.46% | 1.26% | -3.57% | -1.95% | -2.17%
38 | CC(C)C1=CC2=CCC3[C@](C)(CCC[C@@]3(C)C(=O)O)C2CC1O (stereo not given in full) | -1.86% | -7.05% | 3.36% | -16.6% | -12.6%
39 | COCCCN1C(=O)CSc2c(c(C)nn2-c2ccccc2)C1C(=O)NCc1ccccc1OC (stereo not given) | 2.21% | 1% | 7.58% | 4.86% | 7.12%
40 | Clc1ccc(C(c2ccccc2Cl)C(Cl)Cl)cc1 (stereo not given) | -0.797% | 9.82% | 10.4% | -10.5% | -3.72%

Row | Compound | activity change, negative = inhibition [1] | activity change, negative = inhibition [2] | activity change, negative = inhibition [3] | activity change, negative = inhibition [4] | activity change, negative = inhibition [5]
41 | CCCn1c(=O)c2ccc(Cl)cc2n2c(=O)n(CC(=O)N3CCN(c4ccccc4F)CC3)nc12 | -5.73% | 0% | 5.42% | -9.93% | -4.7%
42 | CN[C@@H]1[C@@H](O)[C@@H](O[C@@H]2[C@@H](O)[C@H](O[C@H]3O[C@H]([C@@H](C)NC)CC[C@H]3N)[C@@H](N)C[C@H]2N)OC[C@]1(C)O |  | 0.288% |  | -10.8% | -3.61%
43 | COc1cccc(CNC(=O)Cn2ccc3cc(S(=O)(=O)N4CCC(C)CC4)ccc32)c1 | 2.62% | 5.17% | 0.467% | -0.298% | 0.951%
44 | Cc1ccc(C)c(N2C(=O)c3cc4sccc4n3CC2(C)C(=O)NC2CCCC(C)C2C)c1 (stereo not given) | 1.75% | 0.966% | 0.239% | 4.47% | 2.96%
45 | CCc1cccc(NC(=O)Cn2nc3n(C)c(=O)c4ccc(C(=O)NC(C)CC)cc4n3c2=O)c1 (stereo not given) | 6.07% | 1.94% | 7.35% | -2.2% | 5.51%
46 | O=[S+]1([O-])N(c2ccccc2)C[C@@H](O)[C@]12CCN(Cc1ccc(OC(F)F)cc1)C2 | -1.24% | 0.562% | 3.02% | -1.79% | -2.99%
47 | COc1cccc(C(=O)N2CCC3(CCNCC3)CC2)c1C | -5.92% | -10.9% | -6.09% | -13.7% | -24.7%
48 | Cc1ccc(-c2ncc(C(=O)N3CCC(Nc4ncccn4)CC3)c(=O)[nH]2)cc1 | -7.31% | 0.46% | 0.563% | -0.078% | -0.584%
49 | CCOC(=O)c1cc2n(n1)CC(C)(C(=O)NCc1ccccc1)N(Cc1cccc(Br)c1)C2=O (stereo not given) | 5.13% | 0% | 10% | 2.79% | 4.84%
50 | O=C(c1cccc(F)c1)N1CCCC(CN2CCOCC2)CC1 (stereo not given) | -6.5% | -9.38% | -5.91% | -8% | -2.6%
51 | CCCN1C(=O)c2cc3ccc(OC)cc3n2CC1(C)C(=O)NC1CCCCCC1 (stereo not given) | 7.37% | 4.43% | 10.7% | 10.1% | 3.33%
52 | COc1cc(CNCCc2ccc(Cl)cc2)ccc1OCC(O)CN1CCOCC1 (stereo not given) | -5.27% | -2.42% | -18.4% | -7.17% | -6.45%
53 | COc1cccc(NC(=O)N2Cc3c(sc4c3CCCC4)-n3cccc3C2C)c1 (stereo not given) | -0.568% | 0% | 1.43% | 2.21% | 4.34%
54 | COc1ccc2cc3n(c2c1)CC(C)(C(=O)NCC1CCCO1)N(Cc1cccnc1)C3=O (stereo not given) | 4.38% | 0.409% | 4.74% | 10.8% | 0.148%
55 | O=S(=O)(c1ccc(Cl)cc1)c1nnn2c1nc(NCc1ccc(F)cc1)c1ccccc12 | -2.54% | 2.06% | -0.504% | 3.96% | -3.71%
56 | Cc1ccc(Cn2c(=O)c3ccccc3n3c(=O)n(CC(=O)Nc4ccc5c(c4)OCCO5)nc23)cc1 | 8.19% | 0.675% | 8.18% | 6.87% | 5.04%
57 | CCc1cc(N2CCN(C(=O)[C@H]3CCC[C@@H](O)C3)CC2)ncn1 | -1.09% | -3.96% | -2.01% | -3.81% | 2.32%
58 | c1ccc(CNc2nc(N3CCOc4ccccc43)nc3c2CCCC3)cc1 | 0.291% | -6.63% | 2.57% | -21.9% | -2.28%
59 | O=C(O)C1=NOC2CN(Cc3nc4ccccc4s3)CC12 (stereo not given) | -5.66% | -7.11% | -2.27% | -9.61% | -12.7%
